Values marked as one replicate rest on one cluster of the flow cell; about a third of the high ones do not repeat.
system: ATP; assay: switch fluorescence ratio, 500 uM ATP over buffer (Cy3 cluster intensity, sum of 5 cycles each) (fold (ratio)); higher = stronger signal-on switching upon ATP binding; sequences stand for … in TCGTCGGCAGCGTCAGATGTGTATAAGAGACAGTTTTTTTTTTTTTTTTTTTTTTTTT…TC; details: aptamer strand: ATP DNA aptamer (quencher-CACCTGGGGGAGTATTGCGGAGGAAGG + anchor), 100 nM annealed; ATP concentration: 500 uM; one replicate
Summary of the method: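 Cy3-labelled switching-strand clusters on a modified Illumina MiSeq flow-cell were annealed to 100 nM quencher-labelled ATP aptamer, imaged in selection buffer, then imaged after 15 min with 500 uM ATP at 22 °C. Five buffer/ATP cycles ran, with NaOH stripping and re-annealing between them. The fluorescence ratio is summed target-cycle over summed buffer-cycle Cy3 intensity per cluster, averaged per switch-domain sequence. Clusters outside 100-1000 RFU were excluded.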
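Also: ATP exposure 15 min at 22 °C before imaging.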

Sequence	switch fluorescence ratio
ACAGAGGGCC	0.973
ACAGAGTTAA	1.03
ACAGATAATT	1
ACAGCAATTT	1.5
ACAGCGAAGG	1.01
ACAGCGTTGG	1.02
ACAGCTAAT	1.05
ACAGCTCTTA	1.05
ACAGCTTCCA	1.09
ACAGGAGGC	0.94
ACAGGCAGAC	1.26
ACAGGCCAAA	1.29
ACAGGCTCTA	1.02
ACAGGGCTTC	1.01
ACAGGGGCAA	0.924
ACAGGGTGTG	1.02
ACAGGTTGTG	1.06
ACAGTACCCC	1.29
ACAGTCAAGC	1.09
ACAGTCATAC	1.33
ACAGTCGGGT	1.02
ACAGTGCATC	1.03
ACAGTGGCCC	0.974
ACAGTTGGAG	0.97
ACAGTTTGGG	1.03
ACATAAGGCG	1.14

Sequence	switch fluorescence ratio
ACATAATAG	1.09
ACATACTATT	1.3
ACATAGGAGA	1.01
ACATAGTAAA	1.04
ACATATCAAT	1.05
ACATATCTCT	1.09
ACATATGGAC	1.04
ACATATTCTC	1.02
ACATCAAATT	1.07
ACATCCTGAT	1.02
ACATCGCTT	1.06
ACATCTACGG	1.23
ACATGACAA	1.14
ACATGACCG	1.22
ACATGACCGC	1.24
ACATGCGAAT	1.03
ACATGCGTTA	1
ACATGGCACT	1.12
ACATGGCAGC	1.03
ACATGGCTCC	1.1
ACATGGTGTA	1.02
ACATGTAAAG	1.02
ACATTAGCCT	1.06
ACATTCGTAA	1
ACATTCGTTG	0.997
ACATTGAACC	1.03

Sequence	switch fluorescence ratio
ACATTGCATT	0.987
ACATTGTCGG	0.973
ACATTTATGC	0.953
ACATTTCCCT	1.05
ACATTTTGGG	0.948
ACCAAACGAT	1.21
ACCAAGAGAA	1.06
ACCAAGGCG	1.07
ACCAAGTCGT	0.986
ACCAATACGA	3.59
ACCAATCCCC	1.17
ACCAATCTCC	2.23
ACCACCCCTT	1.06
ACCACGCG	1.03
ACCACGGCTT	1.02
ACCACTGCAG	1.02
ACCACTGGTC	1.13
ACCAGACCCA	1.13
ACCAGGCCCT	0.963
ACCAGGTACA	1.12
ACCAGGTCGG	1.2
ACCAGGTCTC	1.06
ACCAGTGGTA	1
ACCATCCGTG	1.08
ACCATCGTAT	1.46
ACCATCTTGA	1.03

Sequence	switch fluorescence ratio
ACCATCTTGT	1.02
ACCATGGGG	0.996
ACCATGGTGT	1.03
ACCCAAGCGG	1.01
ACCCAATAAG	1.04
ACCCAATGTC	1.24
ACCCACCGTC	1.38
ACCCAGAGTC	1.08
ACCCCAGCCA	1.16
ACCCCCAGGT	1.47
ACCCCCGGCA	1.07
ACCCCGAAAG	1.13
ACCCCGCGTT	1.43
ACCCCTATAT	1.13
ACCCCTTCAC	1.3
ACCCGCTCCT	1.34
ACCCGTGGAC	1.79
ACCCTCAGCT	1.28
ACCCTCGTTG	1
ACCCTCTGTG	1.12
ACCCTCTTGA	1.03
ACCGACCGCC	3.25
ACCGAGACAT	1.07
ACCGATATGG	0.989
ACCGATTTAG	1.02
ACCGCCACCC	1.42

Sequence	switch fluorescence ratio
ACCGCTATGA	1.61
ACCGCTGGGA	0.994
ACCGCTGGTG	1.74
ACCGCTTGCT	1.19
ACCGGAGGAG	1
ACCGGATGCA	0.962
ACCGGCAGTG	1.02
ACCGGCCGAT	1.01
ACCGGCGGCC	1.03
ACCGGGGCCC	1.07
ACCGGGTATT	0.969
ACCGGTAA	1.02
ACCGGTCTCT	1.02
ACCGGTTTAC	1.17
ACCGTAATC	3.6
ACCGTCGGGC	1.09
ACCGTCTGAC	1.13
ACCGTGCGGT	1
ACCGTTGCTC	1.1
ACCTAACTGT	1.14
ACCTAAGATT	1.03
ACCTACAGAA	1.2
ACCTATTCAT	1.01
ACCTCACCTA	1.36
ACCTCCTACT	1.35
ACCTCCTGT	1.08

Sequence	switch fluorescence ratio
ACCTCTCAGG	1.05
ACCTGAAAAG	0.986
ACCTGATATC	1.03
ACCTGATTT	1.01
ACCTGGCGAT	1.1
ACCTTAAAC	1.09
ACCTTAATG	1.02
ACCTTCCAT	1.75
ACGAAACTTA	1.16
ACGAAATGA	1.15
ACGAACCGGG	1.17
ACGAACGGTT	1.37
ACGAACTACG	1.31
ACGAAGGCTG	0.908
ACGAAGTTCT	0.973
ACGAATCAAC	1.11
ACGACGCCG	1.07
ACGACGCCGG	1.6
ACGACTAGC	1.18
ACGACTATCT	1.1
ACGACTATGG	0.967
ACGACTTTTA	1.01
ACGAGCGCCG	1.05
ACGAGTAATA	1.1
ACGAGTTCCG	1.09
ACGATAAGTG	1

Sequence	switch fluorescence ratio
ACGATCACGG	1.26
ACGATCATTC	1.14
ACGATCGCTA	2.85
ACGATGT	0.984
ACGATGTCTT	1.02
ACGCACTTT	1.49
ACGCAGAGCC	1.13
ACGCAGCTT	2.15
ACGCATGTTA	1.04
ACGCCCGCTT	1.29
ACGCCCGGCA	1.08
ACGCCCTTTG	1.63
ACGCCGCTAA	2.78
ACGCCTGAGG	1.04
ACGCGAACAC	1.72
ACGCGCAGAT	1.66
ACGCGCCTCG	0.987
ACGCGTGCGG	0.991
ACGCTAAATG	1.13
ACGCTAGATC	1.03
ACGCTAGGAC	1.67
ACGCTGAGGC	1.05
ACGCTTGGAC	1.65
ACGGA	1.03
ACGGAAAAGG	1.06
ACGGAAGATC	1.08

Sequence	switch fluorescence ratio
ACGGAAGCCA	1.07
ACGGACAGGC	1.35
ACGGACCGTA	0.987
ACGGACGTTG	1.03
ACGGACTCGG	1.04
ACGGAGCCCT	1.2
ACGGAGGGTC	1.07
ACGGATATGA	1.01
ACGGATCCTA	0.959
ACGGATCCTG	0.985
ACGGATGCTA	1.11
ACGGATTTA	1.01
ACGGCAACTT	1.22
ACGGCACCTT	1.49
ACGGCAGGCT	0.961
ACGGCGATAG	1.04
ACGGCGCG	0.96
ACGGCGGACC	1.08
ACGGCGTAGC	1.04

Source: the supplement of paper PMC10126150
